Assay results published in PubChem BioAssay AID1159614 (National Center for Advancing Translational Sciences (NCATS), 2016).
The campaign covered roughly 45,000 compounds. About 65 (0.1%) were called active. Calls follow the shape of the dose curve; as a rule, active = well fitted activation curve with a large enough effect; inconclusive = small, poorly fitted or top-dose-only effect; inactive = no such curve, though single readings can be large or run the other way. This is one part of the list.

biological target: Galactocerebrosidase (Homo sapiens) (UniProt P54803); assay: A Novel Cell-Based Assay to Identify Small Molecules for B -Galactocerebrosidase; conditions: 145M-Twi-hGALC-G270D cells (Twitcher mouse brain line with human GALC G270D), HMU-beta-Gal fluorescence, 48 h; series mostly up to 57.5 µM; activation: at the top concentration; also: 0% is about no effect; nearly all actives have a fitted effect of over 65% in size
Procedure, shortened: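 Mutant human GALC (G270D), stably expressed in a Twitcher mouse brain cell line lacking endogenous GALC, is measured in live-treated cells via 6-hexadecanoylamino-4-methylumbelliferyl-β-galactoside hydrolysis (0.1 mM final, pH 5.2) with fluorescent detection.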

Sequence of UniProt P54803 (P54803 whole entry, looked up): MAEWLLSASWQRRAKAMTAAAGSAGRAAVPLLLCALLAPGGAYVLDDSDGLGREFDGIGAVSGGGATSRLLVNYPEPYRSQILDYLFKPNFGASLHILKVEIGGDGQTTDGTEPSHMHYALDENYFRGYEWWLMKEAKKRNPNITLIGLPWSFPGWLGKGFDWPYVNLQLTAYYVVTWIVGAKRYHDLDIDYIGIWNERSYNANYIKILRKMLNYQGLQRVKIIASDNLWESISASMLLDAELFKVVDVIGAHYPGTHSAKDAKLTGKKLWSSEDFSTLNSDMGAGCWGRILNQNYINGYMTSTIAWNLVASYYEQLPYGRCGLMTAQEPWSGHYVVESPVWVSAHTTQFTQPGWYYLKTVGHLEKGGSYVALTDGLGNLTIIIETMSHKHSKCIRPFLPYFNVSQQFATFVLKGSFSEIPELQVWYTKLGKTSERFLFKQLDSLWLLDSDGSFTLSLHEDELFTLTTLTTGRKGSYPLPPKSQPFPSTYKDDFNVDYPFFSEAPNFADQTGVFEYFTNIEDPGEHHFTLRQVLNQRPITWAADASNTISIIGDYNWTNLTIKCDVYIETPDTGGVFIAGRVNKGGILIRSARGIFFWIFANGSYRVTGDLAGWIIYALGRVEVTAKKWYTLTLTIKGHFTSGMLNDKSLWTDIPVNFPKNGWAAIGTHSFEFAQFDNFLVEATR

activation, inactive:
Cc1cc(C)cc(NC(=O)CSc2ccc(-c3cccs3)nn2)c1 -6.52%
Cc1cc(NS(=O)(=O)c2ccc(NC(=O)COc3ccccc3Br)cc2)no1 -11.8%
Cc1ccccc1Nc1nn2c(=O)c3ccc(C(=O)NCc4cccs4)cc3nc2s1 -20.9%
COc1cc(NS(=O)(=O)c2ccc(NC(=O)c3ccc(Cl)cc3Cl)cc2)nc(OC)n1 -10.3%
Cc1ccc2nc(-c3ccc(NC(=O)COc4ccc(Br)cc4Br)cc3)sc2c1 -3.24%
CNC(=O)c1c(NC(=O)/C=C/c2ccccc2)sc2c1CCC2 -0.778%
O=C(NCc1ccc(F)cc1)C(=O)NCC(c1ccc2c(c1)OCO2)N1CCOCC1 (stereo unspecified) -15.7%
COc1ccc(NC(=O)C2CCCN(S(=O)(=O)c3c(C)[nH]c(=O)[nH]c3=O)C2)c(OC)c1 (stereo unspecified) -22.6%
COc1ccc(C(=O)N(Cc2ccco2)Cc2ccc(C)o2)cc1 -11.5%
Cc1cccc(-c2nc3nc(C)cc(NC(C)c4ccccc4)n3n2)c1 (stereo unspecified) -31.4%
CCc1ccc(NCc2cc3cc4c(cc3n(CC(=O)Nc3ccccc3C)c2=O)OCCO4)cc1 0.33%
Cc1ccccc1NC(=O)/C(C#N)=C/c1ccc(Cl)cc1Cl -32.8%
Cc1nn2c(C)c(C(=O)NCCc3ccccc3)cnc2c1-c1ccccc1 -4.56%
CCOC(=O)c1ccc(NC(=O)CC(=O)Nc2ccc3nc4n(c(=O)c3c2)CCCCC4)cc1 -5.21%
CCOc1ccc(NC(=O)Cn2nnc(-c3nc(-c4ccncc4)no3)c2N)cc1 -13.1%
COc1ccc(Br)cc1CNC(=O)CN1C(=O)c2cccnc2Oc2ccc(C)cc21 3.81%
Cc1ccc2oc(C(=O)Nc3ccc(S(=O)(=O)Nc4nccc(C)n4)cc3)cc(=O)c2c1 -11%
CC(C)c1ccc(N(CC(=O)O)S(=O)(=O)c2ccc3[nH]c(=O)c(=O)[nH]c3c2)cc1 5.97%
Cc1ccc(S(=O)(=O)Cc2nc(-c3ccc(C(=O)NCCCOC(C)C)cc3)oc2C)cc1 -15.3%
Cc1ccc2ncc3c(-c4ccc(F)cc4)nn(CC(=O)Nc4ccccc4C)c3c2c1 -14.8%
O=C(NCC1CCN(Cc2ccccc2F)CC1)Nc1ccc(F)c(Cl)c1 -18.8%
COc1ccc(-c2nc3sc(CCNS(=O)(=O)c4ccccc4)c(C)n3n2)cc1 -20.1%
O=C1c2[nH]nc(-c3ccc(F)cc3)c2C(c2ccccc2F)N1c1ccccc1 (stereo unspecified) -25.5%
Cc1ccc2[nH]c3c(=O)n(CC(=O)Nc4ccc(Br)cc4C)ncc3c2c1 -11.5%
CSc1ccc(CCNC(=O)CCCn2c(=O)c3cccn3c3ccccc32)cc1 -15.6%
CCOc1ccc(C(=O)Nc2cc3c(cc2N2CCCC2)n(C)c(=O)c(=O)n3C)cc1OCC -16.7%
CSc1ncc2c(n1)-c1ccccc1N(Cc1ccccc1)S2(=O)=O -9.19%
Fc1ccc(Nc2nc3ccccc3n3cnnc23)c(F)c1 -24.8%
CC(C)(C)c1ccc(C(=O)Nc2c(C(=O)c3ccc(F)cc3)oc3ccccc23)cc1 -5.88%
Cc1nc2nc(CNC(=O)c3cccc(F)c3)nn2c(C)c1CCC(=O)Nc1cccc(Cl)c1 -12.3%
Cc1nn(C(C)C(=O)Nc2ccccc2C(F)(F)F)c(=O)c2c1sc1ccccc12 (stereo unspecified) 17.8%
Cc1ccc(N(CC(C)C)S(=O)(=O)c2nnc(NC(=O)C(C)C)s2)cc1 -14.3%
COc1ccccc1CNC(=O)COCc1cc(-c2cccs2)on1 -20.3%
COc1ccc(Oc2nc3c(c(=O)n(Cc4ccc(Br)cc4)c(=O)n3C)n2C)cc1 -18.8%
CCSc1nc2ccccc2c(OCc2ccccc2Cl)c1C(=O)OC -16.5%
COc1cccc(C(=O)N(Cc2nc(-c3ccc(Cl)cc3)no2)C(C)C)c1OC -36.2%
COc1ccc(NC(=O)c2nc(-c3ccc(C)cc3)n3c2CCCCC3)cc1 -26.2%
COc1ccc(-n2ccnc(NCCc3ccccc3)c2=O)cc1OC -7.78%
O=C(c1ccc(F)cc1)n1nc(-c2cccnc2)nc1NCc1ccccc1 -11.4%
CCN(C(=O)C1CCN(S(=O)(=O)c2c(C)noc2/C=C/c2ccc(C)cc2)CC1)c1cccc(C)c1 -13.3%
CCOc1ccc(-c2nonc2NC(=O)c2oc3ccc(CC)cc3c2C)cc1 4.41%
CN1CCN(CCNC(=O)c2cnn(-c3ccc(Cl)cc3)c2C2CCN(C(=O)OC(C)(C)C)CC2)CC1 -13.4%
Cc1ccc(CNC(=O)c2cnc3c(-c4ccc(F)cc4)c(C)nn3c2C)o1 -10.6%
COc1ccc(Cl)cc1NC(=O)c1cnc2sc(N3CCOCC3)nn2c1=O 1.44%
O=C(CCCCCn1c(=O)c2sccc2n(Cc2ccccc2Cl)c1=O)NCc1ccc2c(c1)OCO2 -31.7%
COc1ccc(CCNC(=O)C(C)n2nc(C)c3sc4ccccc4c3c2=O)c(OC)c1 (stereo unspecified) -17.4%
Cc1ccc(S(=O)(=O)Nc2ccc3nc(-c4cccc(Cl)c4)oc3c2)cc1 -8.54%
CCC(=O)N1CCc2cc(S(=O)(=O)NC(Cc3ccccc3)C(=O)O)ccc21 (stereo unspecified) -2.05%
COc1ccc(NC(=O)CSc2nc3ccccc3c(=O)n2CCC(=O)NC2CCCCC2)c(OC)c1 -6.24%
CCc1ccc(-c2cn3nc(CC)sc3n2)cc1 -11.3%
Cc1cccc(NC(=O)CSC2=Nc3ccccc3C3=NC(CCC(=O)NCc4ccco4)C(=O)N23)c1 (stereo unspecified) -18%
COc1cc(OC)c(NC(=O)Cn2ncn3c(cc4cc(C)ccc43)c2=O)cc1Cl -10.6%
COC(=O)c1sccc1S(=O)(=O)N(CC(=O)Nc1cccc(C)c1C)c1ccc(C)c(C)c1 -2.47%
COc1ccccc1CNC(=O)Cn1cc2c(n1)-c1c(oc(C(=O)N3CCOCC3)c1C)CC2 -1.46%
COc1ccc(Cn2c(CO)cnc2SCc2ccc(C)cc2)cc1 -6.27%
CC(C)(C)OC(=O)N1CCC(c2c(C(=O)N3CCN(Cc4ccccc4)CC3)cnn2-c2cccc(Cl)c2)CC1 -18%
CC(C)CN(CCNC(=O)CCN1N=C(c2ccccc2)CCC1=O)CC(C)C -15.7%
CCc1ccccc1NC(=O)c1ccc2c(c1)CCCN2S(C)(=O)=O -8.97%
Cc1ccc(-c2onc(C)c2C)cc1S(=O)(=O)Nc1ccccn1 -7.84%
CCSc1nc2ccccc2c(OCc2ccc(Cl)cc2)c1C(=O)OC -1.51%
COc1ccc2c(c1)c1c(c(=O)n(CCc3ccccc3)c(=O)n1Cc1cccc(F)c1)n2C -1.38%
